# Results from the RNAGym collection of RNA variant scans (doi:10.1073/pnas.2313332121).
# This sample is rich in variants without activity.
# B1: TPR 5TU (parent)
# chain: GGAUCUUCUCGAUCUAACAAAAAAGACAAAUCUGCCACAAAGCUUGAGAGCAUCUUCGGAUGCAGAGGCGGCAGCCUUCGGUGGCGCGAUAGCGCCAACGUUCUCAACUAUGACACGCAAAACGCGUGCUCCGUUGAAUGGAGUUUAUCAUG
# Variants of: B1
# Assay: polymerase ribozyme fitness, log enrichment relative to wild type (log ratio); higher = more active; in vitro selection for triplet polymerase activity
# How it was run: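 A single round of triplicate in vitro selection, including frozen incubation at −7 °C, was applied to PCR-built, transcribed mutant libraries of each subunit of a heterodimeric triplet polymerase ribozyme. Illumina sequencing of input and output libraries retained genotypes with ≥10 input reads and ≥1 read per output. Fitness is the base-2 logarithm of genotype enrichment divided by wild-type enrichment, from inverse-variance-weighted replicate averages.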
row,Variant,polymerase ribozyme fitness (log ratio)
1,G11C C125G A142C,≤ -4.2
2,G11U A28U A60U G83A C103G,≤ -4.2
3,G11C G48A C51U G68C G86U A97U C99G G133A,≤ -4.2
4,G11U U15C C35G C76A G94A U101A,≤ -4.2
5,G11C C14G A26U C105G U134G,≤ -4.2
6,A12C A17C G58C G70C G92C C114G C116U,≤ -4.2
7,A12G A24U A73G C75G C85U G141C,≤ -4.2
8,A12G A17C A20G A28G A49U U55A G59A C87G,≤ -4.2
9,G11C A39U A73U C96U,≤ -4.2
10,A12G A49C U53G U135A,≤ -4.2
11,A12C U13A U31G G48A G92C,≤ -4.2
12,A12C G34U G50U G88C A98U C125A,-4.18
13,G11U C36U C63U G83C G92A C99U,≤ -4.2
14,A12C A16C U31C C32G U53A C93G C118G U151C,≤ -4.2
15,A12C A20U U53C A89G,-3.96
16,G11U A39U G62A U77G A120C,≤ -4.2
17,G11C A26G C75G G83C U109G A113C U127C,≤ -4.2
18,G11U U90G C95G A122G,≤ -4.2
19,A12C U53A C125G A150U U151G,≤ -4.2
20,G11C C36U C51U C79U A89C,≤ -4.2
21,G11U C14G G34U G84U G141U,≤ -4.2
22,A12C A24G C85U C95U A120G,≤ -4.2
23,G11C G92C G140A C149U,≤ -4.2
24,G11C A23U G50C C54G C57U A89G C116A G124C U139A,≤ -4.2

row,Variant,polymerase ribozyme fitness (log ratio)
1,A12G A16U A26U G83U C87G U145C,≤ -4.2
2,G11C A19U C54A G59C G68C C85G C99G,≤ -4.2
3,A12C G58U G81A C93A C103G A137G,≤ -4.2
4,G11U A17C A21U G84U A98C G143C,≤ -4.2
5,A12C A64U G68C G84U A106C U145G,≤ -4.2
6,G11C A23C C75U G86U G100A U101G C105A U109G,≤ -4.2
7,G11C A41U C93A C95U G140U A147U,≤ -4.2
8,G11U G34A G88A G124A,≤ -4.2
9,A12G A21G C43U U55A G83U U144G,≤ -4.2
10,A12C A22U A24G A29C G48C G50C C93U C95U C129G,≤ -4.2
11,G11C C43U G92A A138G,≤ -4.2
12,G11U A28U C54G G68A C79A G80C G88A U101A A142C,≤ -4.2
13,G11U U53A G65A A73U G83C U144A,≤ -4.2
14,G11U A22G A37C G58C U78A G94U U134G,≤ -4.2
15,A12C A49U A60C U61G A91C,≤ -4.2
16,G11C G48A A52G C96U A113G C118U G141U A142C U151G,≤ -4.2
17,G11C A17C C36A G58A,≤ -4.2
18,A12C U61G C75G C96U C131U G140U G141A,≤ -4.2
19,G11U A47C U56C G67U C75A U90A C93U,≤ -4.2
20,A12G A29G G88U U90C G126A G152A,≤ -4.2
21,A12C A23U A49C G62A A91U U109G A137C,≤ -4.2
22,G11U G42U U45G C69U C93U,≤ -4.2
23,A12G A49C G58C C87A C95U G126A A137G G152A,≤ -4.2
24,G11C A20G G34U A137U,≤ -4.2

row,Variant,polymerase ribozyme fitness (log ratio)
1,A12G A21U U53A A91U U127G,≤ -4.2
2,G11C C32G G50A C69U C93G U102G,≤ -4.2
3,A12C U77G G94C C96G,≤ -4.2
4,A12C A24U A37G A52C C75U C93U,≤ -4.2
5,G11U U13G G62U C69U G81A C87U,≤ -4.2
6,A12C G48A U104G,≤ -4.2
7,G11C C85U A98U C103U U148G,≤ -4.2
8,G11C U13A A64U G74C C85U C96G U102C,≤ -4.2
9,G11U A12G G42C C87A C99A A121G C125A,≤ -4.2
10,G11C C38U C79A C95U,≤ -4.2
11,G11C U15G A40C C87A U148G,≤ -4.2
12,G11C C51U C95A U127A,≤ -4.2
13,G11C A24U A52G G59C G74A U77G C87G,≤ -4.2
14,G11U U13G G25U C35A A60G C87U C103G G152U,≤ -4.2
15,A12C A23G G25U U31G G86U C95G G128A G140U,≤ -4.2
16,A12C G50C G59U C85G C87G C96G C103G A113U C129A U144C,≤ -4.2
17,G11U U44A G92C,≤ -4.2
18,A12G A30C C85U,≤ -4.2
19,A12C A47U U55A,-1.41
20,A12G A21C A23G C76G C116G G133A,≤ -4.2
21,A12G A49C G58A,≤ -4.2
22,A12C A37C U53C G86U A97G A113U,≤ -4.2
23,A12G A21G U56A C87A U102G,≤ -4.2
24,A12C A37C C75G C76A C95G G124U G136U,≤ -4.2

row,Variant,polymerase ribozyme fitness (log ratio)
1,A12C C85U A91G G124A G126C,≤ -4.2
2,A12C A21U A64C G84U U127C A138U,≤ -4.2
3,A12G A29C C43G G50C G67C C99G U101G A115U,≤ -4.2
4,G11C C85A G133A,≤ -4.2
5,G11U U13A C43U A47G C95A C96G,≤ -4.2
6,G11C A26C U45G C54U,≤ -4.2
7,G11U C38U G58C C96U A98G,-1.45
8,A12G A47C A52C C85A C103U A110G,≤ -4.2
9,A12C A29U U56G C85G C96G G140C A147U,≤ -4.2
10,G11U A20C A41C C63U G92A C116G,≤ -4.2
11,G11U U55G A60G G67A C93U,≤ -4.2
12,G11C U31C U33G A40U U77G,≤ -4.2
13,G11C C14G C87A A121C U144A,≤ -4.2
14,G11C C51U C79A G126U,≤ -4.2
15,A12C A16C U53G A97U,≤ -4.2
16,A12G A30U A91U C95U G100U A107G C114A A122U U144G,≤ -4.2
17,A12C G50U G88C,≤ -4.2
18,G11U A39U A40U A60U C79U U101A,≤ -4.2
19,A12C C57U U90A C103A C125G,≤ -4.2
20,A12C A23C U56A C87U G88C A91G C103G,≤ -4.2
21,G11U C57G A119U A121G C149U,-2.88
22,G11U C103G C123G,-2.44
23,A12C A49C G50A G62C C93U U134G G143C,≤ -4.2
24,A12G A17U C57G G65U A107G A122G A147G,≤ -4.2

row,Variant,polymerase ribozyme fitness (log ratio)
1,A12C U15C G42A U45G C87U U101G,≤ -4.2
2,A12C A40U G42A U55A G88U A115G,≤ -4.2
3,A12C A21G C35G A39C G59U C87U,≤ -4.2
4,G11U A21C U33G C36A C85G,≤ -4.2
5,G11U G42C A47C G74A C96G C105U G140A,≤ -4.2
6,G11U U53A C132U U146G,-3.51
7,A12C C35U A49C A64U C95U C123U,≤ -4.2
8,A12G A40U G88C U104A,≤ -4.2
9,G11C A29U G58U G59C U77A U151G,≤ -4.2
10,A12C C32G G84U,≤ -4.2
11,A12C U139A,≤ -4.2
12,G11U C36U U44G A52U G70C A89G C95U C105U,≤ -4.2
13,A12C A39U A89G C123U C125U U146G,≤ -4.2
14,A12C C14G A29C G46C U53C U55A C93G,≤ -4.2
15,A12G A40G U55A G83A U104G,≤ -4.2
16,A12C A23U G42C A47C G80C C85G C123G G126C A147G,≤ -4.2
17,A12G A39G U53A U56A G58C C79A C118A C149G,≤ -4.2
18,A12G A16U A60U C72G C95U,≤ -4.2
19,A12G A28G A29U C99G G126U,≤ -4.2
20,G11U G68A,≤ -4.2
21,G11U C85U A91C,≤ -4.2
22,A12G A52U C76U C93U A120U,-2.12
23,A12C A16G C18U A37U C76A C95U C149A,≤ -4.2
24,A12C A20U U61A G92U C131A,≤ -4.2

row,Variant,polymerase ribozyme fitness (log ratio)
1,A12C C18G G81C A91C C95A A113C A115C,≤ -4.2
2,A12C G46U A113U C118U,-3.95
3,A12C C76G G94C A150C,≤ -4.2
4,A12C A30G G50C C95U,≤ -4.2
5,A12C C38U C51A G83U G92C,≤ -4.2
6,G11U A23C C27G G48A C57U C75U C79A A107G U135C G141U,≤ -4.2
7,G11U U61A C87U,-3.78
8,A12C A22G C32G C51G A60U U77A G81C G128A U148C,≤ -4.2
9,A12C A26G U61A U127A,≤ -4.2
10,G11U C54G C93G,≤ -4.2
11,A12G A30G U33G A40G U55C G58C G62A A66C A91G A107U,≤ -4.2
12,A12C A24U G58U C79A C103G,≤ -4.2
13,A12G C14G A17G A66C C116U U148A,≤ -4.2
14,A12C G59A G84A C118U A121G A122C G126U,-3.86
15,A12C A37U C87G C125G,≤ -4.2
16,A12C A66G C85G C95U C108G,≤ -4.2
17,G11C G50A U56A G83U C93A U127C U135C,≤ -4.2
18,G11C C32G G50A A91G,≤ -4.2
19,A12G A17C U33A U55G C57G C87A G94A G128U,≤ -4.2
20,G11U C51U G62C G70A G86A A91G,≤ -4.2
21,G11U G25C C32U G50C A60G C95U,≤ -4.2
22,G11C U53A C72G C79A U82A U90G A106C,≤ -4.2
23,A12C A26C G92C,-3.66
24,G11C G46C G59C G92U,-3.55

row,Variant,polymerase ribozyme fitness (log ratio)
1,A12C U33A G42U A60G C93G,≤ -4.2
2,G11C C14U A17U A73G C87A A138U,≤ -4.2
3,A12G A49C C93U U134A U145G,≤ -4.2
4,A12G A26C C43G C87U U134G,≤ -4.2
5,G11C C87U,-2.7
6,A12C A19C C99U,-1.52
7,G11U U31G G50C A121C C125G,≤ -4.2
8,G11C U61A G67A G94C U145G A147U,≤ -4.2
9,G11C C32U C69A A121G,-4.12
10,G11C A16U A22G A24U G92U A115G U146C,≤ -4.2
11,A12C A28G A29U A49U U55A G62C G67C G83C A142U U144G,≤ -4.2
12,G11U C79G C85G,≤ -4.2
13,A12G A49C A60C G88U G126U,≤ -4.2
14,A12C A30G C38A C51A U56G C85G C95U A106G U111A,≤ -4.2
15,G11C C14U U55G G81U G84C G86A G88U A121U U135G,≤ -4.2
16,A12C U13C A26C C27G G70A C96G,≤ -4.2
17,G11C A64G A89G U111C U146A,≤ -4.2
18,A12C A28G A30G C32A A52G C79U G86C A91U G136A G143C U145G,≤ -4.2
19,G11C C63U C85U G86U C114U,≤ -4.2
20,A12C G92C A138U,≤ -4.2
21,G11C G68C C76A G80C C93U,≤ -4.2
22,A12C A23C C54A G81U G92C C99A,≤ -4.2
23,A12G A40C A41U A64U G68C C72A U78G A89G C95U G140U,≤ -4.2
